We go through 59 molecules from patent US20090143279A1 (priority 2007, published 2009).

For this assay, the system named is cellular ATP levels. Conditions: for ATP (composite Z-score): normalized score vs mock-treated (DMSO) wells.
Where [1] appears, read: composite Z-score vs mock-treated (DMSO) wells, Conc 20 μM.
[2] abbreviates: composite Z-score vs DMSO, Conc 20 μM.
The mark [3] stands for this setting: normalized composite Z-score vs mock-treated (DMSO) wells, Conc 20 μM.

Read-outs that look alike come from different tables or passages of the source.

With `CCOC(=O)C1(O)Oc2cc(OC)cc(OC)c2C(=O)C1c1ccccc1` (stereo not drawn) [2-ethoxycarbonyl-2-hydroxy-5,7-dimethoxyisoflavanone, reference compound], the ATP under setting [1] is reported as −1.500.

Under setting [2], `O=c1c2ccccc2oc2ccc(O)cc12` [2-hydroxyxanthone] yielded an ATP of −0.916.

`CC(C)=CCc1c(O)cc(C)oc1=O` [2-isoprenyl-3-hydroxy-5-methyl-a-pyrone] had an ATP under setting [1] of 0.004.

Take `COc1cccc(C=CC(=O)O)c1C(C)C` [2-isopropyl-3-methoxycinnamic acid]: the ATP under setting [3] is listed as −1.528.

For `Sc1nc2ccccc2s1` [2-mercaptobenzothiazole], the “ATP (composite Z-score)” value (Conc 20 μM) was −0.408.

Turning to `COc1c(O)cccc1O` [2-methoxyresorcinol], the “ATP (composite Z-score)” value (Conc 20 μM) is 0.150.

Regarding `COc1ccc2oc3ccccc3c(=O)c2c1` [2-methoxyxanthone], the ATP under setting [2] is −0.087.

The molecule `Cc1occc(=O)c1/C=C/O` [2-methyl-3-hydroxyethylenepyran-4-one] had an ATP under setting [3] of −0.367.

`COc1cc(OC)c2c(=O)c(-c3ccccc3)c(C)oc2c1OC` [2-methyl-5,7,8-trimethoxyisoflavone] had an ATP under setting [2] of 1.653.

As for `CCCc1occc(=O)c1CCO` [2-propyl-3-hydroxyethylenepyran-4-one], the “ATP (composite Z-score)” value (Conc 20 μM) is 0.499.

The molecule `O=C(O[C@@H]1Cc2c(O)cc(O)cc2O[C@@H]1c1cc(O)c(O)c(O)c1-c1c([C@H]2Oc3cc(O)cc(O)c3C[C@H]2OC(=O)c2cc(O)c(O)c(O)c2)cc(O)c(O)c1O)c1cc(O)c(O)c(O)c1` [2′,2′-bisepigallocatechin digallate] displayed an ATP under setting [3] of 0.573.

For `O=C(O[C@@H]1Cc2c(O)cc(O)cc2O[C@@H]1c1cc(O)c(O)c(O)c1-c1c([C@H]2Oc3cc(O)cc(O)c3C[C@H]2O)cc(O)c(O)c1O)c1cc(O)c(O)c(O)c1` [2′,2′-bisepigallocatechin monogallate], the “ATP (composite Z-score)” value (Conc 20 μM) was 0.545.

For `O=C(/C=C/c1ccccc1)c1ccc(O[C@@H]2O[C@H](CO)[C@@H](O)[C@H](O)[C@H]2O)cc1O` [2′,4′-dihydroxychalcone 4′-glucoside], under “Conc 20 μM”, the “ATP (composite Z-score)” value is given as 0.137.

Take `O=C(C=C(O)c1ccccc1)c1ccccc1O` [2′,beta-dihydroxychalcone]: the ATP under setting [2] is −0.920.

As to `COc1ccc(-c2coc3cc(O)ccc3c2=O)c(OC)c1` [2′-methoxyformonetin], the ATP under setting [1] stood at 1.998.

`COc1cc(C=CC=O)cc(OC)c1OC` [3,4,5-trimethoxycinnamaldehyde] returned an ATP under setting [2] of 0.145.

In turn, `CC1(O)CC2C(CC1O)C2(C)C` (stereo not drawn) [3,4-dihydroxycarane] displayed an ATP under setting [2] of −0.280.

Regarding `C=CC(C1=CC(=O)C(OC)=C(OC)C1=O)c1ccccc1` (stereo not drawn) [3,4-dimethoxydalbergione, reference compound], the ATP under setting [1] is recorded as −5.364.

Turning to `CC(=O)c1cc(CC=C(C)C)c(O)c(CC=C(C)C)c1` [3,5-diprenyl-4-hydroxyacetophenone], under setting [2], the ATP is recorded as −0.362.

`COc1ccc2c(=O)c(OC)c(-c3ccccc3)oc2c1` [3,7-dimethoxyflavone] came in with an ATP under setting [3] of 1.027.

`CC1CC(O)C2OC1CC1C(CC1(C)C)C2C` (stereo not drawn) [3,7-epoxycaryophyllan-6-ol]: the ATP under setting [3] was −0.499.

Molecule `COc1c(-c2ccccc2)oc2c(OC)cccc2c1=O` [3,8-dimethoxyflavone] yielded an ATP under setting [3] of 0.242.

As for `COC(=O)C[C@H]1C(C)(C)[C@@H](O)[C@@H]2CC3=C4CC(O)O[C@@H](c5ccoc5)[C@]4(C)CCC3[C@@]1(C)C2=O` (stereo partly drawn) [3,16-dideoxymexicanolide-3beta-diol], the ATP under setting [3] is on record as −0.547.

`CC(=O)OC1CC[C@@]2(C)C(CC[C@H]3[C@@H]4CC=C(C(C)=O)[C@@]4(C)C(=O)C[C@@H]32)C1` (stereo partly drawn) [3-acetoxypregn-16-en-12,20-dione] registered an ATP under setting [1] of 1.152.

Under setting [3], `CC(=O)O[C@H]1C[C@@H](O)C(C)(C)[C@@H]2C[C@@H](OC(C)=O)[C@]3(C)[C@H](CC[C@@]4(C)[C@@H](c5ccoc5)OC(=O)[C@H]5O[C@@]534)[C@@]12C` [3-deacetylkhivorin] registered an ATP of −0.078.

With `COc1ccc2c(c1)OCC(Cc1ccc(OC)c(OC)c1)C2O` (stereo not drawn) [3-deshydroxysappanol trimethyl ether, reference compound], the ATP under setting [3] is on record as −0.268.

On to `Cc1cc(O)c(C)c(O)c1C(=O)O` [3-methylorsellinic acid], for which the ATP under setting [2] is on record as 1.932.

Under setting [2], `Cn1c(=O)[nH]c(=O)c2[nH]cnc21` [3-methylxanthine] gave an ATP of 0.704.

Consider `CC1CCC23CCC4(C)C5(C)CCC6C(C)(C)C(=O)CCC6(C)C5CCC4(OC2=O)C3C1C` (stereo not drawn) [3-oxoursan (28-13)olide], for which, under setting [3], the ATP was determined as 0.062.

Molecule `CC1C(=NO)CC2CC1C2(C)C` (stereo not drawn) [3-pinanone oxime] registered an ATP under setting [3] of 0.209.

`CC(=O)c1ccc(O)c(CC=C(C)C)c1` [3-prenyl-4-hydroxyacetophenone] had an ATP under setting [2] of 1.387.

In turn, `CC(=O)O[C@@H]1CC[C@@]2(C)C(C[C@@H](OC(C)=O)[C@@]3(C)C4=CC(=O)O[C@@H](c5ccoc5)[C@]4(C)CCC23)C1(C)C` (stereo partly drawn) [3alpha-acetoxydihydrodeoxygedunin] came in with an ATP under setting [1] of −0.586.

`CC(=O)O[C@@H]1CC2C(C)(C)[C@H](O)CC[C@]2(C)C2CC[C@@]3(C)[C@H](c4ccoc4)OC(=O)C4OC43[C@@]21C` (stereo partly drawn) [3alpha-hydroxydeoxodihydrogedunin] yielded an ATP under setting [3] of 0.835.

As for `CC(=O)O[C@H]1CC[C@]2(C)[C@H]3CC[C@@]4(C)[C@H](c5ccoc5)OC(=O)[C@H]5O[C@]54[C@]3(C)[C@H](OC(C)=O)C[C@H]2C1(C)C` [3beta-acetoxydeoxodihydrogedunin], the ATP under setting [1] was found to be 0.077.

For `CC(=O)O[C@@H]1CC2C(C)(CC[C@H](O)C2(C)C)C2CC[C@]3(C)C(=CC(=O)O[C@H]3c3ccoc3)C21C` (stereo partly drawn) [3beta-hydroxydeoxodihydrodeoxygedunin], where the note is “Conc 20 μM”, the “ATP (composite Z-score)” value is 0.202.

For `CC(=O)OC1CC2C(C)(C)[C@@H](O)CC[C@]2(C)C2CC[C@]3(C)[C@H](c4ccoc4)OC(=O)[C@H]4O[C@]43[C@]12C` (stereo partly drawn) [3beta-hydroxydeoxodihydrogedunin], the ATP under setting [1] worked out at 0.638.

With `C=CC(C1=CC(=O)C(OC)=CC1=O)c1ccc(OC)cc1` (stereo not drawn) [4,4′-dimethoxydalbergione], the ATP under setting [1] is reported as −0.089.

In turn, `COc1ccc(-c2cc(=O)c3ccc(OC)cc3o2)cc1` [4,7-dimethoxyflavone] gave an ATP under setting [3] of −0.035.

As to `Cc1c(N)c(=O)n(-c2ccccc2)n1C` [4-aminoantipyrine], the ATP (composite Z-score vs DMSO, Conc 4.42 μM) is on record as −1.148.

`NCCc1ccc(S(=O)(=O)F)cc1` [4-aminoethylbenzenesulfonyl fluoride] registered an ATP under setting [2] of 1.073.

Consider `C=CC(C1=CC(=O)C(OC)=CC1=O)c1ccc(O)cc1` (stereo not drawn) [4-methoxy-4′-hydroxy-dalbergione], for which the ATP under setting [1] was determined as 1.255.

As for `COc1ccccc1-c1cc(=O)c2c(OC)cccc2o1` [5,2′-dimethoxyflavone], the ATP under setting [3] is reported as 1.331.

Under setting [2], `COc1cc(OC)c2c(=O)c(-c3ccccc3)coc2c1` [5,7-dimethoxyisoflavone] came in with an ATP of −0.194.

Take `C=C1CCC2C(CC2(C)C)C(=C)CCC1=NO` (stereo not drawn) [5-hydroxyiminoisocaryophyllene]: under setting [1], the ATP was 0.874.

As for `C[C@]12CC[C@H](O)C[C@@H]1CC[C@@H]1[C@@H]2CC[C@]2(C)[C@@H](O)CC[C@@H]12` [5alpha-androstan-3beta,17beta-diol], the ATP under setting [2] was determined as 0.359.

`CC(C)CCC[C@@H](C)[C@H]1CC[C@H]2[C@@H]3CC(=O)[C@H]4C[C@@H](O)CC[C@]4(C)[C@H]3CC[C@]12C` [5alpha-cholestan-3beta-ol-6-one] had an ATP under setting [2] of 2.248.

Under setting [1], `COc1cccc(-c2cc(=O)c3cc(OC)ccc3o2)c1` [6,3′-dimethoxyflavone] registered an ATP of −2.332.

As to `C=C1C2CC[C@@]3(C)[C@H](c4ccoc4)OC(=O)C[C@]13O[C@H]1CC(=O)C(C)(C)[C@H](C(OC(C)=O)C(=O)OC)[C@@]21C` (stereo partly drawn) [6-acetoxyangolensic acid methyl ester], the “ATP (composite Z-score)” value (Conc 20 μM) is −0.780.

Take `C=C1C2CC[C@@]3(C)[C@H](c4ccoc4)OC(=O)C[C@]13O[C@H]1CC(=O)C(C)(C)[C@H](C(O)C(=O)OC)[C@@]21C` (stereo partly drawn) [6-hydroxyangolensic acid methyl ester]: the ATP under setting [1] is on record as −0.193.

For `CC(=O)OCC(=O)[C@@]1(O)CC[C@H]2[C@@H]3C[C@H](C)C4=CC(=O)C=C[C@]4(C)[C@H]3[C@@H](O)C[C@@]21C` [6alpha-methylprednisolone acetate], the “ATP (composite Z-score)” value (Conc 20 μM) is reported as 0.169.

As for `CC1(C)C(=O)C=C[C@@]2(C)C1CC(=O)[C@@]1(C)C3=CC(=O)O[C@@H](c4ccoc4)[C@]3(C)CCC12` (stereo partly drawn) [7-deacetoxy-7-oxodeoxygedunin], under setting [1], the ATP is on record as 0.609.

`CC(=O)O[C@H]1C[C@@H](OC(C)=O)C(C)(C)C2CC(=O)[C@]3(C)C(CC[C@@]4(C)[C@H](c5ccoc5)OC(=O)[C@H]5O[C@]543)[C@]21C` (stereo partly drawn) [7-deacetoxy-7-oxokhivorin] showed an ATP under setting [1] of −0.644.

Under setting [3], `CC1(C)C(=O)C=C[C@]2(C)[C@H]3CC[C@@]4(C)[C@H](c5ccoc5)OC(=O)[C@H]5O[C@]54[C@]3(C)C=C[C@@H]12` [7-desacetoxy-6,7-dehydrogedunin] had an ATP of 2.695.

Consider `COc1ccc(-c2coc3c(OC)c(O)ccc3c2=O)cc1` [7-hydroxy-8,4′-dimethoxyisoflavone], for which the ATP under setting [3] amounted to 0.309.

`COc1ccc2c(=O)ccoc2c1` [7-methoxychromone] came in with an ATP under setting [2] of −0.063.

Under setting [2], `COC(=O)C1(C)CCCC2(C)c3ccc(C(C)C)cc3C(=O)CC12` (stereo not drawn) [7-oxocallitrisic acid, methyl ester] displayed an ATP of −0.302.

With `COc1ccccc1-c1cc(=O)c2cccc(OC)c2o1` [8,2′-dimethoxyflavone], where the note is “Conc 20 μM”, the “ATP (composite Z-score)” value is reported as 0.456.

In the case of `CC(=O)C=CC1C(C)(O)CCC2C(C)(C)CCCC21C` (stereo not drawn) [8-hydroxy-15,16-bisnor-11-labden-13-one], the ATP under setting [3] is listed as 0.871.

Take `COc1ccc([C@H]2Oc3c(I)c(OC)cc(OC)c3C[C@@H]2O)cc1OC` [8-iodocatechin tetramethyl ether, reference compound]: the ATP by setting is: (Table 4, C2C12 myotubes, 48 h, composite Z-score) 0.343; under setting [1], 0.343.
